# Measurements: PubChem BioAssay AID504333 (National Center for Advancing Translational Sciences (NCATS), 2011)
# Hit rate of the full screen: of about 360,000 compounds, about 16,000 (4.4%) were called active. This list was built around the results that the source calls inconclusive (neither active nor inactive); the mix of calls is not that of the screen. The call rests on the fitted dose curve; in most records, active means well fitted inhibition curve with a large enough effect; inconclusive means small, poorly fitted or top-dose-only effect; inactive means no such curve, though single readings can be large or run the other way. A potency beside an inconclusive call is a rough fit, not a confirmed value.
# Molecular target: Bromodomain adjacent to zinc finger domain protein 2B (Homo sapiens) (UniProt Q9UIF8)
# Test: qHTS Assay for Inhibitors of BAZ2B; further: nearly all actives have a fitted effect of over 60% in size
# Conditions: AlphaScreen BAZ2B-H3K14Ac peptide displacement; activity change, negative = inhibition: at 114 µM (top of the series) unless noted
# Outline: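 AlphaScreen displacement: compounds (up to 110uM) incubated 30 min at room temperature with a preformed 50 nM BAZ2B/50 nM biotinylated H3K14Ac peptide complex in PBS pH 7.4 with Tween-20. Donor and acceptor beads at 10 ug/mL final added, 20 min light-protected before reading.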
# On the % scale 0 is the no-effect control and ±100 the full control effect; potency means the concentration at half of the fitted maximal effect; tags describe the fitted curve by direction and shape.
# Chain of UniProt Q9UIF8 (Q9UIF8 whole entry, looked up, the tested form may be a part): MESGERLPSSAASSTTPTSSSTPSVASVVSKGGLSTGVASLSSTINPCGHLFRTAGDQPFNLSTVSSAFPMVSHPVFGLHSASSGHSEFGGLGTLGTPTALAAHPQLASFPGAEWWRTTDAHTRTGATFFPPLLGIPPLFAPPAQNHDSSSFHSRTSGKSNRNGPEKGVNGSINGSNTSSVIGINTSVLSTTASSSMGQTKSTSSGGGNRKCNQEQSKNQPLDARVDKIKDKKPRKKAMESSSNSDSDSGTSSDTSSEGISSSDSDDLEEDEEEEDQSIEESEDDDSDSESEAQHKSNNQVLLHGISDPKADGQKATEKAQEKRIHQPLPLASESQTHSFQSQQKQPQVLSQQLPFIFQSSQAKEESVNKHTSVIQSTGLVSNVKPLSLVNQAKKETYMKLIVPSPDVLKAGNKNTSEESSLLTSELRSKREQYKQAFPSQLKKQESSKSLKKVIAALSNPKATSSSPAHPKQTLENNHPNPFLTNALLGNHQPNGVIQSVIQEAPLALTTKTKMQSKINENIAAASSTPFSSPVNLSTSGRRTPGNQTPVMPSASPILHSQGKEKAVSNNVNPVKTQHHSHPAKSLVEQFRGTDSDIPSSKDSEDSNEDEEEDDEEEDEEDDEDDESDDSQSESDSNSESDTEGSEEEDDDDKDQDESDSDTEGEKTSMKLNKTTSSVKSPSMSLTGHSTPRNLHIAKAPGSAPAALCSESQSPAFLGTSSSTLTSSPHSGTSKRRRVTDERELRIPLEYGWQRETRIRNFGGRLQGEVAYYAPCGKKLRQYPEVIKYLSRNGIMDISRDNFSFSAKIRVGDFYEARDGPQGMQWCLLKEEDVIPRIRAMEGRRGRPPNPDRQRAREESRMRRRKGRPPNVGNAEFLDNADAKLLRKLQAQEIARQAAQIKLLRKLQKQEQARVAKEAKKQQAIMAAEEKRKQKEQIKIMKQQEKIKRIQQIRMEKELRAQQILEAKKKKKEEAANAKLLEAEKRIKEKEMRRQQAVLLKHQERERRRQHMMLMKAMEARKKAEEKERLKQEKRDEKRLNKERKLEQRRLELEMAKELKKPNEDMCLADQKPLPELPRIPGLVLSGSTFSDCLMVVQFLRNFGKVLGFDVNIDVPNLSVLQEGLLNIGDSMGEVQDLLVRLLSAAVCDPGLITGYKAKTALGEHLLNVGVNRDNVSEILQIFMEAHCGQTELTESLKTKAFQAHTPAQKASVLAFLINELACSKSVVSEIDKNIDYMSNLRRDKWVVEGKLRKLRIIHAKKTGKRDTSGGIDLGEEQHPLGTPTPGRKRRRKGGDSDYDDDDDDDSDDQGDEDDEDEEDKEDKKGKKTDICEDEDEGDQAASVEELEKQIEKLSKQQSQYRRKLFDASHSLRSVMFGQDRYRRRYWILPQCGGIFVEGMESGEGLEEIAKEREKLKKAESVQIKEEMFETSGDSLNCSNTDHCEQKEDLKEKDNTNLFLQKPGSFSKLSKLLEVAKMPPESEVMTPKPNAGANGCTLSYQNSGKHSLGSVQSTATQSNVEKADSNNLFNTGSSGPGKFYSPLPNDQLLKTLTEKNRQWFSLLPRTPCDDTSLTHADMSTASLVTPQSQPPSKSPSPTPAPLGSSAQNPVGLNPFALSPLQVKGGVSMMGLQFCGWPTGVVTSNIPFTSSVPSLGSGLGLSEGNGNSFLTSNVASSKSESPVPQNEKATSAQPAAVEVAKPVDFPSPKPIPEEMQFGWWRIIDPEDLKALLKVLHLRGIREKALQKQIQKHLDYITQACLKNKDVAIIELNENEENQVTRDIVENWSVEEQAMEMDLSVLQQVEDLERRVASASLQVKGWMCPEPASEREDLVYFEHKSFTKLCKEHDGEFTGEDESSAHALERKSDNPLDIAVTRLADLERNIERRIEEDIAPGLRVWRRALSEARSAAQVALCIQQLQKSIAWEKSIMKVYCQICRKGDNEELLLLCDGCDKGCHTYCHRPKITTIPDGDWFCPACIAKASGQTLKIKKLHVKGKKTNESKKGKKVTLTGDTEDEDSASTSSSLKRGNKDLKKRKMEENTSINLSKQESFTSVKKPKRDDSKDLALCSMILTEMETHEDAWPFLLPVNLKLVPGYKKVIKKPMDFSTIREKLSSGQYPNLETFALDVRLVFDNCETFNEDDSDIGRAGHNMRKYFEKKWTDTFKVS
Compound,Potency,"activity change, negative = inhibition"
CC(=S)/C=C1\Sc2ccccc2N1C,active: 50.1 µM,–
COc1cccc(N2CCN(c3ncnc4c3[nH]c3ccc(F)cc34)CC2C)c1 (centres undefined),"inconclusive: 39.8 µM [inhibitor, full curve]",–
COc1cc(/C=C2\CC(C(C)(C)C)C/C(=C\c3cc(OC)c(OC)c(OC)c3)C2=O)cc(OC)c1OC (centres undefined),"inconclusive: 6.31 µM [inhibitor, partial curve]",–
CCOC(=O)NC1(Nc2ccc(Cl)cn2)Oc2ccccc2O1,"inconclusive: 89.1 µM [inhibitor, single point]",–
COc1ccc(OC)c(NC(=O)Cn2c(CCC(=O)O)ccc2-c2ccccc2)c1,"inconclusive: 79.4 µM [inhibitor, single point]",–
CC(=O)NCCC(=O)N(C)CC1CCN(CCc2cccc(C(F)(F)F)c2)CC1,–,inactive: -29.3%
O=C(OCC(=O)c1ccc(Cl)s1)c1cnccn1,"inconclusive: 79.4 µM [inhibitor, single point]",–
Brc1ccc(/C=N/Nc2nc3ccccc3o2)cc1,–,inactive: -27.3%
COc1ccc(OC)c(-c2csc(NC(=O)Cc3ccc(OC)c(OC)c3)n2)c1,"inconclusive: 50.1 µM [inhibitor, partial curve]",–
CCOc1ccccc1N1CCN(C(=O)Nc2ccc(Cl)c(Cl)c2)CC1,"inconclusive: 89.1 µM [inhibitor, single point]",–
O=C(CCCCn1c(=O)c2ccccc2n(Cc2cccc(Cl)c2)c1=O)NCc1ccc2c(c1)OCO2,–,inactive: -2.96%
CCOc1ccccc1NC(=O)COc1coc(CN2CCCc3ccccc32)cc1=O,"inconclusive: 28.2 µM [inhibitor, full curve]",–
O=C(C[n+]1cccc(C(=O)Nc2ccccc2)c1)c1ccc([N+](=O)[O-])cc1,"inconclusive: 89.1 µM [inhibitor, single point]",–
O=C(N/N=C/c1ccc(O)c(O)c1)NC12CC3CC(CC(C3)C1)C2,"inconclusive: 70.8 µM [inhibitor, single point]",–
Cc1cc(C(=O)CN2C(=O)C3CC=CCC3C2=O)c(C)n1-c1ccccc1 (centres undefined),"inconclusive: 44.7 µM [inhibitor, partial curve]",–
Cc1ccsc1CNC12CC3CC(CC(C3)C1)C2,–,inactive: -14.9%
COCCn1c(CNc2ccc(F)cc2)nnc1SCC(=O)Nc1ccc(OC)cc1OC,"inconclusive: 89.1 µM [inhibitor, single point]",–
CC(C)n1c(-c2ccco2)csc1=Nc1cccnc1,active: 28.2 µM,–
CC(C)C(NC(=O)c1ccccc1NC(=O)c1ccccc1)C(=O)NNC(=O)c1ccncc1 (centres undefined),"inconclusive: 70.8 µM [inhibitor, single point]",–
CCOC(=O)c1cccc(NC(=O)CN2CCN(c3ccc(OC)cc3)CC2)c1,"inconclusive: 79.4 µM [inhibitor, single point]",–
COc1ccc(N2CCN(C(=O)c3c(Cl)cnn3C)CC2)cc1,–,inactive: -0.688%
CCCCOc1ccccc1NC(=O)c1ccc(=O)[nH]c1,–,inactive: -4.99%
COc1cc(C(=O)NCC(c2ccco2)N2CCc3ccccc32)cc(OC)c1OC (centres undefined),active: 79.4 µM,–

Compound,Potency,"activity change, negative = inhibition"
CC(=O)C1=C(O)C(=O)N(CCCn2ccnc2)C1c1ccc(Br)cc1 (centres undefined),"inconclusive: 89.1 µM [inhibitor, single point]",–
CC#C[C@]1(O)CC[C@H]2[C@@H]3CCC4=CC(=O)CCC4=C3[C@@H](c3ccc(N(C)C)cc3)C[C@@]21C,active: 12.6 µM,–
NS(=O)(=O)c1ccc(N/N=C/c2ccc(C(=O)O)cc2)c([N+](=O)[O-])c1,"inconclusive: 89.1 µM [inhibitor, single point]",–
CCOc1ccc(-c2nc(CCl)cs2)cc1OC,"inconclusive: 79.4 µM [inhibitor, partial curve]",–
CNC(=S)NCCN1CCOCC1,"inconclusive: 89.1 µM [inhibitor, single point]",–
COc1ccc(CCNC(=O)CSc2ccccc2)cc1OC,–,inactive: -13.7%
COCCCNC(=S)Nc1ccc(N2CCCCC2)cc1,"inconclusive: 70.8 µM [inhibitor, single point]",–
CN(C)c1ccc(NC(=O)CN2CCN(S(=O)(=O)c3cc(Cl)ccc3Cl)CC2)cc1,active: 35.5 µM,–
CCOc1ccc(N=C2SC(C(=O)Nc3ccccc3C#N)C(N)=C2C(=O)Nc2ccc(Cl)cc2)cc1 (centres undefined),"inconclusive: 79.4 µM [inhibitor, partial curve]",–
CCOc1ccc(NC(=O)C2CCCN2S(=O)(=O)c2ccc3c(c2)C(C)(C)C(=O)N3C)cc1 (centres undefined),–,inactive: -2.3%
O=C(COc1ccccc1/C=C\c1nc(O)c([N+](=O)[O-])c(=O)[nH]1)Nc1ccccc1,"inconclusive: 50.1 µM [inhibitor, partial curve]",–
COc1ccccc1C(=O)Nc1ccnn1C1CCN(C/C=C/c2ccc(F)cc2)CC1,–,inactive: -33.3%
OC(CNCc1cccc(Cl)c1)c1ccccc1 (centres undefined),"inconclusive: 79.4 µM [inhibitor, single point]",–
C=CCN1C(=O)/C(=C2/Sc3ccccc3N2CCCS(=O)(=O)O)SC1=S,"inconclusive: 89.1 µM [inhibitor, single point]",–
Cc1cc(C)cc(OCCSc2nc(-c3cccs3)nc3cc(=O)[nH]n23)c1,"inconclusive: 89.1 µM [inhibitor, single point]",–
COc1ccc(NC(=O)CSc2n[nH]c(-c3ccco3)n2)cc1,"inconclusive: 89.1 µM [inhibitor, single point]",–
Cc1ccc(C(=O)Nc2ccc(S(=O)(=O)NCc3ccco3)cc2)cc1,"inconclusive: 89.1 µM [inhibitor, single point]",–
CCOc1cc(C(=O)N2CCCC2)cc(OCC)c1OCC,"inconclusive: 89.1 µM [inhibitor, single point]",–
CCCc1[nH]nc2c1C(c1cc(OC)ccc1F)C(C#N)=C(N)O2 (centres undefined),"inconclusive: 56.2 µM [inhibitor, partial curve]",–
COc1cccc(-n2c(SCC(N)=O)nc3ccccc3c2=O)c1,–,inactive: -1.66%
Cc1ccc(/C=N/NC(=O)c2csc3c2CCCC3)cc1,"inconclusive: 89.1 µM [inhibitor, single point]",–
CC(CCc1ccco1)N(C)S(=O)(=O)c1csc(C(N)=O)c1 (centres undefined),"inconclusive: 56.2 µM [inhibitor, partial curve]",–
CN(CCOC(=O)/C=C/c1ccco1)Cc1ccccc1,active: 35.5 µM,–

Compound,Potency,"activity change, negative = inhibition"
COc1ccc(O[C@H]2C=C[C@@H](c3ccccc3)O[C@@H]2COC(=O)CC/C(C)=N/OC[C@@H](O)[C@H]2O[C@@H]3OC(C)(C)O[C@@H]3[C@H]2O)cc1,"inconclusive: 89.1 µM [inhibitor, single point]",–
COc1ccc(OC)c(CN2CCC(CNC(=O)Nc3cccc(Cl)c3)CC2)c1,"inconclusive: 39.8 µM [inhibitor, partial curve]",–
COc1cc(N(Cc2ccccc2)Cc2ccccc2)c2ncn(C(C)C)c2c1,"inconclusive: 39.8 µM [inhibitor, full curve]",–
C=CCn1c(C)cc(C(=O)COC(=O)/C=C/c2c(C)nn(C3CCS(=O)(=O)C3)c2Cl)c1C (centres undefined),"inconclusive: 44.7 µM [inhibitor, partial curve]",–
Cc1ccc2nc(-c3cccnc3)c(NC3CCCC3)n2c1,"inconclusive: 89.1 µM [inhibitor, single point]",–
COc1ccccc1NC(=S)c1ccccc1,–,inactive: -10.5%
CCOc1ccc(N2C(=O)c3cccnc3C2Nc2ccc(F)cc2)cc1 (centres undefined),–,inactive: 36.4%
COc1ccc(/C=N/Nc2nc(N3CCCCC3)nc(N3CCCCC3)n2)cc1[N+](=O)[O-],"inconclusive: 44.7 µM [inhibitor, partial curve]",–
CCc1ccc(NC(=O)CCCn2nc(CC)n3c(cc4occc43)c2=O)cc1,"inconclusive: 20 µM [inhibitor, full curve, poor fit]",–
O=c1c2sc3ccccc3c2n(Cc2cccc(C(F)(F)F)c2)c(=O)n1Cc1ccc(F)cc1,–,inactive: 23.5%
COC(=O)c1ccc2[nH]c(CO)c(-c3ccccc3)c2c1,"inconclusive: 50.1 µM [inhibitor, partial curve]",–
COc1cc(C2C(C(C)=O)=C(O)C(=O)N2c2ccc(Br)cn2)ccc1O (centres undefined),"inconclusive: 100 µM [inhibitor, single point]",–
COc1ccc(-c2oc3cccnc3c2C#CCO)cc1,–,inactive: -2.9%
Cc1ccc(C)c2[nH]c(=O)c(C(c3nnnn3Cc3ccccc3)N3CCc4ccccc4C3)cc12 (centres undefined),–,inactive: -22.5%
Cc1cc(C)n(Cc2ccc(C(=O)N/N=C/c3ccc(-c4ccc([N+](=O)[O-])cc4)o3)o2)n1,active: 20 µM,–
CCOc1ccc(S(=O)(=O)Nc2cc(Cl)ccc2OC)c2cccnc12,"inconclusive: 89.1 µM [inhibitor, single point]",–
O=C(NCc1cc(C(F)(F)F)cc(C(F)(F)F)c1)C12CN(Cc3ccccc3)CC1C(c1cccc([N+](=O)[O-])c1)=NO2 (centres undefined),–,inactive: 16.6%
NC(=S)N=Nc1ccc(NN=C(N)N)cc1,active: 39.8 µM,–
O=C(Oc1cc(-c2ccccc2)no1)c1ccc(Cl)cc1,"inconclusive: 28.2 µM [inhibitor, single point]",–
COc1ccc(CCNc2oc(-c3ccccc3OC)nc2C#N)cc1,"inconclusive: 44.7 µM [inhibitor, partial curve]",–
CCOc1ccc(NC(=O)CC2C(=O)N(c3ccc(OC)cc3)C(=S)N2Cc2ccccn2)cc1 (centres undefined),"inconclusive: 44.7 µM [inhibitor, partial curve]",–
CCn1c(CNC(=O)Cc2ccc(OC)cc2)nnc1SCCOc1ccccc1,–,inactive: 2.42%
CCOc1ccc2oc(C(=O)N3CCN(c4ccccn4)CC3)c(C)c2c1,"inconclusive: 50.1 µM [inhibitor, partial curve]",–
